{"source": "patent US20240261312A1", "about": "(priority 2021, published 2024)", "key": {"[1]": {"test_system": "bovine respiratory syncytial virus (BRSV)", "conditions": "BT cells"}, "[2]": {"test_system": "porcine reproductive and respiratory syndrome virus (PRRSV)"}, "[3]": {"test_system": "bovine viral diarrhea virus (BVDV)", "conditions": "MDBK cells, 24-h time point"}, "[4]": {"test_system": "bovine coronavirus (BCV)"}}, "note": "Values joined by “and” are separate entries in the source; they are usually repeats but may differ in a detail not shown here. Identical values can stand only once."}
{"smiles": "CO[C@H]1C[C@H](O[C@H]2CC[C@@]3(C)[C@H](CC[C@@H]4[C@@H]3CC[C@]3(C)[C@@H](C5=CC(=O)OC5)[C@@H](OC(C)=O)C[C@]43O)C2)O[C@@H](C)[C@@H]1O", "note": "[oleandrin]", "values": [{"measurement": "concentration range over which efficacious", "setting": "[1]; BRSV, therapeutic", "value": "≥ 0.005", "unit": "µg/mL"}, {"measurement": "reduction in viral infectivity", "setting": "[1]; 24-h time point and 48-h time point", "value": "62-100%"}, {"measurement": "inhibition of viral infectivity of progeny virus to new cells", "setting": "[2]; 24-48 h time period, 0.01 to 1 ug/ml oleandrin", "value": "78-98%"}, {"measurement": "concentration range over which efficacious", "setting": "[2]; PRRSV, MARC 145 cells, therapeutic", "value": "≥ 0.05", "unit": "µg/mL"}, {"measurement": "inhibition of viral infectivity relative to control", "setting": "[3]", "value": "91-94%"}, {"measurement": "reduction in viral infectivity", "setting": "[4]", "value": "98-100% and 99-100%"}]}
